The whole screen tested about 420,000 compounds, of which about 50,000 (12%) were called active. The shares of active, inactive and inconclusive entries below differ from those in the screen. Calls follow the shape of the dose curve; as a rule, active = well fitted inhibition curve with a large enough effect; inconclusive = small, poorly fitted or top-dose-only effect; inactive = flat fitted curve, though single readings scatter. Potencies of inconclusive entries are left out as doubtful fits.
Experiment: qHTS for Inhibitors of human tyrosyl-DNA phosphodiesterase 1 (TDP1): qHTS in cells in presence of CPT; also: nearly all actives have a fitted effect of over 55% in size
Settings: chicken DT40 Tdp1-/-;hTDP1 cells + 20 nM CPT, ATP luminescence, 48 h; activity change, negative = growth inhibition: at 46.2 µM (top of the series) unless noted
Summary of the method: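 Cell growth measured by CellTiter-Glo luminescence after a minimum 48 h, 37 C compound exposure with 20 nM CPT in Tdp1-knockout DT40 cells stably expressing hTDP1, seeded 400/well; qHTS titration format.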
% is scaled to controls: 0 for no effect and ±100 for the full control effect; potency is read from the fitted curve at half-maximal effect; tags tell the direction and shape of the fitted curve.

Compound | Potency | activity change, negative = growth inhibition
COc1ccccc1CN1CCC(CNS(=O)(=O)c2cc(-c3onc(C)c3C)ccc2OC)CC1 | active: 20.6 µM | 
CN(C)CCCNC(=O)C[C@H]1C[C@H](C(=O)N2CCCCC2)[C@@]2(C)c3[nH]c4cc(-c5ccco5)ccc4c3CCN2C1=O | inconclusive [inhibitor, single point] | 
C=CCN(C(=O)CNC(=O)c1ccco1)C(C(=O)NC1CCCCC1)c1cccnc1 (stereo not drawn) | inactive | 
Nc1nc(N)nc(-c2cccc(Cl)c2)n1 | inconclusive [inhibitor, single point] | 
COc1ccc(-c2ccc(F)cc2)cc1[C@H]1[C@H]2C=CC[C@@H](C)[C@@H]2C(=O)N1Cc1ccccc1 | inconclusive [inhibitor, single point] | 
O=c1[nH]c(/C=C/c2ccccc2Cl)nc2ccccc12 | active: 16.4 µM | 
Cc1ccc(-c2nnc(Nc3ccc(Br)cc3)c3ccccc23)cc1S(=O)(=O)NCC1CCCO1 (stereo not drawn) | active: 16.4 µM | 
CCc1cc(-c2n[nH]c(C)c2-c2nc3ccccc3n2C)c(O)cc1O | inconclusive [inhibitor, single point] | 
CCCS(=O)(=O)N1CCN(Cc2ccc3c(c2)c2ccccc2n3CC)CC1 | active: 20.6 µM | 
O=C(COC(=O)c1cccc(OC(F)F)c1)Nc1cc(S(=O)(=O)N2CCCC2)ccc1Cl |  | inconclusive: -32.4% [inhibitor]
COC(=O)Nc1nc(-c2ccccc2)c(C(=O)c2ccccc2)s1 | active: 0.82 µM | 
O=S(=O)(c1ccc(SCc2ccc(Cl)cc2)nc1)N1CCCC1 | inconclusive [inhibitor, single point] | 
O=C(NCC1CCOCC1)c1cc(COc2ccc(F)cc2F)on1 | inactive | 
CC(=O)Oc1ccc(C2(c3ccc(OC(C)=O)cc3)C(=O)Nc3ccccc32)cc1 | inactive | 
COC(=O)c1ccc(OCC2c3cc(OC)c(OC)cc3CCN2C(=O)c2ccccc2C)cc1 (stereo not drawn) | inconclusive [inhibitor, single point] | 
O=c1cc(CSc2nnnn2-c2ccc(O)cc2)nc2sccn12 | inactive | 
COc1ccccc1N1CCN(CCCCNC(=O)c2ccc3ccccc3c2)CC1 | inconclusive [inhibitor, partial curve] | 
Cc1c(/C=C2\SC(=O)N(CC(=O)Nc3ccc4c(c3)OCO4)C2=O)c2ccccc2n1C |  | inconclusive: -33.5% [inhibitor]
COc1cccc(-c2cc(C(=O)N3CCN(C(=O)c4ccco4)CC3)[nH]n2)c1 | inactive | 
CCOc1ccc(NCc2cccn2-c2nnc(N3CCC(C(=O)NCCCN4CCCCC4CC)CC3)s2)cc1 (stereo not drawn) | inconclusive [inhibitor, single point] | 
Cc1cccc(N2CCN(C(=O)Cn3ncc4c3-c3cc(C)ccc3OC4)CC2C)c1 (stereo not drawn) | active: 23.1 µM | 
Cc1oc(-c2ccc(F)cc2)nc1CN(Cc1ccccn1)CC1CCCO1 (stereo not drawn) | inconclusive [inhibitor, single point] | 
CN(CC(=O)Nc1ccc(F)cc1)C(=O)c1cc2c(s1)CCCCC2 | inactive | 
Cc1ccccc1CN1CCN(CC(=O)NCCCN2CCN(c3ccc(F)cc3)CC2)C1=O | active: 16.4 µM | 

Compound | Potency | activity change, negative = growth inhibition
O=C(CNc1ccccc1)NNC1=NCCC1 | inactive | 
O=C(N/N=C/C=C/c1ccccc1)c1n[nH]c2c1CCC2 | active: 1.64 µM | 
CCC(=O)Nc1ccc(S(=O)(=O)N2CCOCC2)cc1 | inactive | 
CC(c1ccccc1)N1CCC(CNC(=S)Nc2cccc(Cl)c2)C1 (stereo not drawn) | inconclusive [inhibitor, single point] | 
O=C(NCCC(=O)N1CCN(c2cccc(Cl)c2)CC1)c1ccc(Br)cc1 | inconclusive [inhibitor, single point] | 
COc1ccc(NC(=O)N2CC3(CCNCC3)C2)cc1 | inactive | 
CCCCNC(=O)C1(C)CCCCN1C(=O)c1cc(C#N)cs1 (stereo not drawn) | inactive | 
Cc1nn(Cc2ccc(C(=O)NN)o2)c(C)c1Cl | inactive | 
NC1=NC(=O)/C(=C\c2cccnc2)S1 |  | inconclusive: -34.9% [inhibitor]
CC[C@]1(C(=O)OC)[C@H]2C(=O)N(C)C(=O)[C@H]2[C@H]2CN=C(SCc3ccc(Cl)cc3)N21 | inconclusive [inhibitor, single point] | 
Cc1ccc(NC(=S)Nc2ccc(F)cc2)c(C)c1 | inactive | 
CCn1c2ccccc2c2cc(NC(=O)c3cc(OC)cc(OC)c3)ccc21 | active: 1.03 µM | 
Cc1ccc(OCC(=O)N(Cc2ccc(Cl)cc2)Cc2ccco2)cc1C | inconclusive [inhibitor, single point] | 
COC(CNC(=O)c1ccc2c(c1)ncn2-c1cccc(C)c1)OC | inactive | 
Cc1sc2nc(COC(=O)c3cccc(OC(F)F)c3)[nH]c(=O)c2c1C | inconclusive [inhibitor, partial curve] | 
COc1ccc(OC)c(C(=O)c2c(C)oc3cc(Br)c(O)c(CN(C)C)c23)c1 | inconclusive [inhibitor, single point] | 
Cc1ccccc1C(=O)NNC(=O)c1ccoc1C | inactive | 
COc1ccc(NC(=O)Cn2c(=O)n(CCC(C)C)c(=O)c3cccnc32)cc1Cl | inconclusive [inhibitor, partial curve] | 
CCn1cc(CNCc2cn(-c3ccccc3C)nc2-c2ccc(OC)c(F)c2)cn1 | inconclusive [inhibitor, single point] | 
COc1cccc(-c2nc(SCC(=O)NCC3CCCO3)c(-c3ccc(C)cc3)[nH]2)c1 (stereo not drawn) | inconclusive [inhibitor, single point] | 
CCN(CC)CCNC(=O)Cn1nc(Cc2ccccc2)c2ccccc2c1=O | inconclusive [inhibitor, single point] | 
N#Cc1ccc(CSc2nnc(NC(=O)CCc3nc4ccccc4c(=O)[nH]3)s2)cc1 | inactive | 
Cc1ccc(S(=O)(=O)N2CCOC2CNC(=O)C(=O)NCCN(C)C)cc1 (stereo not drawn) | inactive | 
Cc1ccccc1C(=O)NCc1nnc(SCC(=O)N2CCN(c3ccccc3)CC2)n1C | inconclusive [inhibitor, partial curve] | 
